According to article PMC8027411:
Results are given in words; binding and its absence hold for the method and conditions named. Binding seen in cells or lysates may run through a third protein. Some results given as binding are weak or reduced against the parent protein; the word gives no strength.

Assays:
Assay in all cases: co-IP; endogenous proteins, NCI-H1975 cell lysates in RIPA buffer (50 mM Tris-HCl pH 7.5, 150 mM NaCl, 1 mM EDTA, 1% NP40); EGFR, RAB31, FLOT1, FLOT2 or TBC1D2B antibody or control IgG with protein A or A/G agarose, overnight at 4 °C; western blot
[1] = target: T1, Flotillin1 (FLOT1), endogenous (human (endogenous in NCI-H1975)) (UniProt O75955)
T1 sequence: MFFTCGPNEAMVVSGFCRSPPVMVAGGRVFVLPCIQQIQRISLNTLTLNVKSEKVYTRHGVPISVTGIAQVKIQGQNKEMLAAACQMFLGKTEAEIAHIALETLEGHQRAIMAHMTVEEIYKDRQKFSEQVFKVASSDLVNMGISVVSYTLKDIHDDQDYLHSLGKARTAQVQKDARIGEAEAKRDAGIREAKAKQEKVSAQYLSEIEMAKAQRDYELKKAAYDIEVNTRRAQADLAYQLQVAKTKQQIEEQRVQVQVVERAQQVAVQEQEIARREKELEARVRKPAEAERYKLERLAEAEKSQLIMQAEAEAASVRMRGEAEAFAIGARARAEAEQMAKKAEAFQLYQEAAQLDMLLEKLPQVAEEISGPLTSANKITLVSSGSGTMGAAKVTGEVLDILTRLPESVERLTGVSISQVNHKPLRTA

[2] = target: T2, Flotillin2 (FLOT2), endogenous (human (endogenous in NCI-H1975)) (UniProt Q14254)
T2 sequence: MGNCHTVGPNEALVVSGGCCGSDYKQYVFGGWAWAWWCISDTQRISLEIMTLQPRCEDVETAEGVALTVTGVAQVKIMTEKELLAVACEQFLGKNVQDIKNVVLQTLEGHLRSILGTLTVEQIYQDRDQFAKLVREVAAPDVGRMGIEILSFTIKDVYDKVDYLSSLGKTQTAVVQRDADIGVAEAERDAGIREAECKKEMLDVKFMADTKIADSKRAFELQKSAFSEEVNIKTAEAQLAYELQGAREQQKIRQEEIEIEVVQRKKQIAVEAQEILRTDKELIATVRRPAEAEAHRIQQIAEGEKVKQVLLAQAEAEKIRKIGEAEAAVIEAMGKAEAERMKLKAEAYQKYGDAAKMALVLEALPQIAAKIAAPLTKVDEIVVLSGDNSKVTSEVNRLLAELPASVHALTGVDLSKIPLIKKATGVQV

[3] = target: T3, TBC1D2B (endogenous) (human (endogenous in NCI-H1975)) (UniProt Q9UPU7)
T3 sequence: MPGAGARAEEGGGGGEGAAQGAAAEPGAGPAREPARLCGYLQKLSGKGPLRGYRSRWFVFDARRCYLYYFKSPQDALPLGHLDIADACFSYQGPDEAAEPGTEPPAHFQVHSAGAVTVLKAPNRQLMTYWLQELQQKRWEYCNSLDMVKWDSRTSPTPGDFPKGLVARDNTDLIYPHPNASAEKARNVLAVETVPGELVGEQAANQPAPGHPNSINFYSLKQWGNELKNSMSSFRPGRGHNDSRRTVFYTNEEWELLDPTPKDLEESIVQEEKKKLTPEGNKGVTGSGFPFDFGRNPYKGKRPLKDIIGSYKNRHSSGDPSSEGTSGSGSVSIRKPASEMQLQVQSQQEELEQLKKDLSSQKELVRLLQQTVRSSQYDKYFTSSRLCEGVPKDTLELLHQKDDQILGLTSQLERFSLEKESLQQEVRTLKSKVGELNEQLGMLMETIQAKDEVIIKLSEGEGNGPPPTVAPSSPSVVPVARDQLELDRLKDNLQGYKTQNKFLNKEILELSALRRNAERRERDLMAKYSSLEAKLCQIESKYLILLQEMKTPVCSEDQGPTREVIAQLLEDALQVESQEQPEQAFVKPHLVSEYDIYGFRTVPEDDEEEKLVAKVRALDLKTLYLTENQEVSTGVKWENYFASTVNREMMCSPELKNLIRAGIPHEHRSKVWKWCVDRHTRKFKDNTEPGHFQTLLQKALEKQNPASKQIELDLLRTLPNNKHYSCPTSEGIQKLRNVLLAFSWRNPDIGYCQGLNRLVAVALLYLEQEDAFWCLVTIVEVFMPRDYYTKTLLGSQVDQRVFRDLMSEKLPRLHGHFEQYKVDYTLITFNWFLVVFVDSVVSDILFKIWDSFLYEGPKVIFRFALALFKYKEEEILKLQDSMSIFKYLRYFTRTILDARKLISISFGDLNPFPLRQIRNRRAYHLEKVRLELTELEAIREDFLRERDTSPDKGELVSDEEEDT

[4] = target: epidermal growth factor receptor (EGFR), endogenous in NCI-H1975 (EGFR^M2) (human (endogenous in NCI-H1975)) (UniProt P00533)

Measured: binding

B1: RAB31 (endogenous) (protein, UniProt Q13636 1-195)
chain: MMAIRELKVCLLGDTGVGKSSIVCRFVQDHFDHNISPTIGASFMTKTVPCGNELHKFLIWDTAGQERFHSLAPMYYRGSAAAVIVYDITKQDSFYTLKKWVKELKEHGPENIVMAIAGNKCDLSDIREVPLKDAKEYAESIGAIVVETSAKNAINIEELFQGISRQIPPLDPHENGNNGTIKVEKPTMQASRRCC
binds: all assays above
